According to PubChem BioAssay AID1963576 (National Center for Advancing Translational Sciences (NCATS), 2024):
Hit rate of the full screen: of about 46,000 compounds, about 60 (0.1%) were called active. Another 3% or so got no clear call; they are omitted. Calls come from the whole dose curve; as a rule, active = well fitted inhibition curve with a large enough effect; inconclusive = small, poorly fitted or top-dose-only effect; inactive = no such curve, though single readings can be large or run the other way. The list shows a part of the results.

assay: Primary qHTS assay for Inhibitors of ovarian cancer metastasis using an organotypic tumor microenvironment (TME) model.; note: nearly all actives have a fitted effect of over 65% in size;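 for activity change, negative = inhibition: plate controls were DMSO wells for no effect and tomatine positive control wells for full effect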; details: SKOV3ip1-GFP adhesion/invasion on 3D omental model, fluorescence; series mostly up to 45.8 µM; activity change, negative = inhibition: at the top concentration
Procedure, shortened: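 Primary human omental fibroblast/mesothelial 3D culture pre-formed 48 h. SKOV3ip1-GFP cells added with compounds (0.36-46 umol/L), incubated 2 h RT/16 h 37 C, fixed; GFP cells quantified at 488/509 nm.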

Activity change, negative = inhibition, inactive:
CCc1cccc(CC)c1NC(=O)c1c(C)oc2ccc(O)c(CN3CCN(C)CC3)c12 2.82%
Cc1nc(N2CCCC2)c2c(C(=O)N3CCN(c4ccc(F)cc4)CC3)c(C)oc2n1 4.29%
Cc1ccc(-c2nnc(Nc3ccc(Br)cc3)c3ccccc23)cc1S(=O)(=O)NCC1CCCO1 (centres undefined) 0.867%
Cc1ccc(OCC(=O)N(Cc2ccc(Cl)cc2)Cc2ccco2)cc1C -5.5%
CCOc1ccc(NC(=O)c2cc3c(C)nn(-c4ccccc4)c3s2)cc1 -22.5%
CCOc1ccc(C2CC(=O)NC(NC(=O)c3ccc(C)cc3)=N2)cc1 (centres undefined) -6.13%
COc1cccc(-c2nc(SCC(=O)NCC3CCCO3)c(-c3ccc(C)cc3)[nH]2)c1 (centres undefined) 1.11%
COc1ccc(NC(=O)Cn2c(=O)n(CCC(C)C)c(=O)c3cccnc32)cc1Cl 0.523%
Cc1cc(C)cc(NC(=O)c2cc(C)nc3c2c(C)nn3-c2ccccc2)c1 3.64%
Cc1cccc(Cn2cc(/C=C(/C#N)C(=O)Nc3cccc(Cl)c3)c3ccccc32)c1 -3.11%
CCCOc1ccc(NC(=O)CC2C(=O)N(c3ccccc3)C(=O)N2Cc2ccc(F)cc2)cc1 (centres undefined) -17.9%
Cc1ccccc1Nc1cc(C(=O)NC2CCCC2)c2ccccc2n1 -4.35%
COc1ccc(NC(=O)c2ccc3c(=O)n4nc(Nc5ccccc5C)sc4nc3c2)cc1Cl -7.29%
C[C@]1(CO)CN(c2cc(C(=O)Nc3ccc4c(c3)-c3c(c(C(N)=O)nn3-c3ccc(F)cc3)CC4)c(Cl)cn2)C[C@@]1(C)CO -0.418%
CC(C)NC(=O)C1CCC(Cn2c(=O)c3sccc3n(CC(=O)N3CCCC3)c2=O)CC1 (centres undefined) 16.6%
Cc1ccccc1C(=O)Nc1ccccc1OCc1cc(=O)n2ccccc2n1 3.62%
CCOc1ccccc1NC(=O)Cn1c(=O)n(Cc2nc(C)no2)c(=O)c2ccccc21 -21.3%
Cc1ccc(C(=O)NCC(c2ccc3c(c2)OCO3)N2CCN(c3ccc(F)cc3)CC2)cc1 (centres undefined) 5.51%
Clc1ccccc1CNc1ncnc2c1nc1n2CCCC1 -0.613%
Cc1cccc(-c2nc(S(=O)(=O)c3ccc(Cl)cc3)c(N3CCCCCC3)o2)c1 2.69%
Cc1n[nH]c(C)c1Cc1sc2c(c1C(=O)N1C[C@H](O)CO1)c(=O)n(C)c(=O)n2CC(C)C -0.101%
CCOc1ccc(CCNC(=O)c2c(C)oc3ncn(CC(C)C)c(=O)c23)cc1 10.6%
Cc1cccc(CS(=O)(=O)Cc2ccc(C(=O)NCc3ccccc3)o2)c1 -10.3%
CCOc1ccccc1CNC(=O)c1nc(-c2ccc(Cl)cc2)n2c1CCCCC2 -11.6%
CCN(CC)c1nc2c(S(=O)(=O)c3ccccc3)nnn2c2ccc(Cl)cc12 -5.55%
Cc1cccc(NC(=O)C2CCCN(S(=O)(=O)c3ccc4c(c3)oc(=O)n4C)C2)c1C (centres undefined) 53.8%
COC(=O)c1c(NC(=O)COc2ccc(C)cc2Br)sc2c1CCCC2 9.53%
CCc1ccccc1NC(=O)CN1C(=O)C2CCCN2c2ccc(S(=O)(=O)N(CC)CC)cc21 (centres undefined) 4.4%
COc1cccc(N2C(=O)C(CC(=O)Nc3ccccc3)N(CCc3sccc3C)C2=O)c1 (centres undefined) -4.91%
CCOC(=O)C(CC)Sc1ncnc2c1c(-c1ccccc1)cn2-c1ccc(OC)cc1 (centres undefined) -6.54%
Cc1c(CNC2CCC(C)CC2)c(C(=O)O)c(C)n1Cc1ccc(Cl)cc1 (centres undefined) -1.51%
Cc1cc(C)c(OCC(=O)N(Cc2ccc(N(C)C)cc2)CC2CCCO2)c(C)c1 (centres undefined) 11.2%
Cc1cc(=O)n(CC(=O)N2CCCc3ccccc32)c2c1c(C)nn2-c1cccc(F)c1 2.35%
CCn1c(=O)c2cc(C(=O)NCc3ccc(F)cc3Cl)sc2c2ccccc21 1.05%
O=C(CSc1nnc(-c2ccccc2)c(-c2ccccc2)n1)NCCc1ccccc1 -2.8%
O=C(NCCc1ccc(F)cc1)C(=O)NCC(c1cccs1)S(=O)(=O)c1ccc(Cl)cc1 (centres undefined) 1.88%
CCS(=O)(=O)N1CC(=O)N(c2ccc(Cl)cc2C)C(C)(C(=O)NC2CCCCC2)C1 (centres undefined) -4.61%
COc1ccc2c(C)c(CCC(=O)NCCc3ccc(OC)c(OC)c3)c(=O)oc2c1 -9.67%
COc1ccc(C(=O)Nc2nnc(SCc3cc(=O)c4cccc(F)c4[nH]3)s2)cc1 0.919%
Cn1c(=O)c2c(nc(NCCCCO)n2Cc2ccccc2Cl)n(C)c1=O -2.37%
CCCCOC(=O)c1ccc(OC(=O)c2sc3ncn(Cc4cccc(F)c4)c(=O)c3c2C)cc1 4.63%
CCC(C)NC(=O)Cn1c(=O)n(CCCCCC(=O)Nc2ccccc2)c(=O)c2sccc21 (centres undefined) -6.47%
CCCN(C(=O)Cc1nc(-c2ccc(OC)cc2)no1)c1ccccc1C -19.4%
CCc1cccc(C)c1NC(=O)CCCn1c(C)c2cnn(-c3ccccc3)c(=O)c2c1C -17%
CCn1c2ccccc2c2cc(CN3CCN(Cc4ccc(Cl)cc4)CC3)ccc21 -7.1%
CCOC(=O)c1ccc(NC(=O)CC2C(=O)N(c3cccc(OC)c3)C(=O)N2Cc2cccnc2)cc1 (centres undefined) 10.6%
CC(=O)c1ccc(NC(=O)C(C)n2nc(-c3ccccc3)ccc2=O)cc1 (centres undefined) 24.6%
CC(=O)Nc1cc(C(=O)NCc2ccc(F)cc2)ccc1S(=O)(=O)c1ccc(C)cc1 -19.1%
CCN(CC)CCCNC(=O)Cn1ncc2c3ccccc3n(Cc3ccccc3)c2c1=O -8.95%
CCc1nc(Nc2ccc(F)c(Cl)c2)c2c3c(sc2n1)CCCC3 3.58%

outcome, inactive:
COC(=O)c1ccc(OCC2c3cc(OC)c(OC)cc3CCN2C(=O)c2ccccc2C)cc1 (centres undefined)
Cc1ccc(Cn2c(C(=O)O)c(CNC3CCCCC3)c3ccc(C)cc32)cc1
CCN(C(=O)c1cc2c(=O)oc3ccccc3c2s1)c1ccc(C)c(C)c1
CCOc1ccc(N(C)S(=O)(=O)c2cc(-c3cc(C)no3)ccc2OC)cc1
Cc1ccc(CNC(=O)CN(C)S(=O)(=O)c2ccc3c(c2)c(=O)n(C)c(=O)n3C)cc1
Cc1ccc(C)c(N(C)C(=O)c2cc3c(s2)-c2ccccc2OC3)c1
CN1C(=O)CC(C(=O)Nc2ccc(C(=O)O)cc2)SC1=Nc1ccc(Cl)cc1 (centres undefined)
COc1cccc(-c2nnc(SCC(=O)N(C)c3ccccc3)o2)c1
Cc1ccc2c(=O)cc(C(=O)Nc3ccc(S(=O)(=O)N4CCCCC4C)cc3)oc2c1C (centres undefined)
